In patent publication US9567641B2, “Combination therapy for the treatment of cancer using an anti-C-met antibody” (SAMSUNG ELECTRONICS CO., LTD., priority 2013, dated 2017):

Columns and labels:
Conditions in all cases: rank among the four antibodies selected in Reference Example 1.7
[1] = molecular target: T1, c-Met (Homo sapiens, UniProt P08581); test: Affinity / specificity for c-Met; type: binding
[2] = tested on: Akt phosphorylation; test: Akt phosphorylation; type: cell-based
[3] = molecular target: T1, c-Met; test: c-Met degradation degree; type: cell-based

T1 sequence (P08581 25-1390): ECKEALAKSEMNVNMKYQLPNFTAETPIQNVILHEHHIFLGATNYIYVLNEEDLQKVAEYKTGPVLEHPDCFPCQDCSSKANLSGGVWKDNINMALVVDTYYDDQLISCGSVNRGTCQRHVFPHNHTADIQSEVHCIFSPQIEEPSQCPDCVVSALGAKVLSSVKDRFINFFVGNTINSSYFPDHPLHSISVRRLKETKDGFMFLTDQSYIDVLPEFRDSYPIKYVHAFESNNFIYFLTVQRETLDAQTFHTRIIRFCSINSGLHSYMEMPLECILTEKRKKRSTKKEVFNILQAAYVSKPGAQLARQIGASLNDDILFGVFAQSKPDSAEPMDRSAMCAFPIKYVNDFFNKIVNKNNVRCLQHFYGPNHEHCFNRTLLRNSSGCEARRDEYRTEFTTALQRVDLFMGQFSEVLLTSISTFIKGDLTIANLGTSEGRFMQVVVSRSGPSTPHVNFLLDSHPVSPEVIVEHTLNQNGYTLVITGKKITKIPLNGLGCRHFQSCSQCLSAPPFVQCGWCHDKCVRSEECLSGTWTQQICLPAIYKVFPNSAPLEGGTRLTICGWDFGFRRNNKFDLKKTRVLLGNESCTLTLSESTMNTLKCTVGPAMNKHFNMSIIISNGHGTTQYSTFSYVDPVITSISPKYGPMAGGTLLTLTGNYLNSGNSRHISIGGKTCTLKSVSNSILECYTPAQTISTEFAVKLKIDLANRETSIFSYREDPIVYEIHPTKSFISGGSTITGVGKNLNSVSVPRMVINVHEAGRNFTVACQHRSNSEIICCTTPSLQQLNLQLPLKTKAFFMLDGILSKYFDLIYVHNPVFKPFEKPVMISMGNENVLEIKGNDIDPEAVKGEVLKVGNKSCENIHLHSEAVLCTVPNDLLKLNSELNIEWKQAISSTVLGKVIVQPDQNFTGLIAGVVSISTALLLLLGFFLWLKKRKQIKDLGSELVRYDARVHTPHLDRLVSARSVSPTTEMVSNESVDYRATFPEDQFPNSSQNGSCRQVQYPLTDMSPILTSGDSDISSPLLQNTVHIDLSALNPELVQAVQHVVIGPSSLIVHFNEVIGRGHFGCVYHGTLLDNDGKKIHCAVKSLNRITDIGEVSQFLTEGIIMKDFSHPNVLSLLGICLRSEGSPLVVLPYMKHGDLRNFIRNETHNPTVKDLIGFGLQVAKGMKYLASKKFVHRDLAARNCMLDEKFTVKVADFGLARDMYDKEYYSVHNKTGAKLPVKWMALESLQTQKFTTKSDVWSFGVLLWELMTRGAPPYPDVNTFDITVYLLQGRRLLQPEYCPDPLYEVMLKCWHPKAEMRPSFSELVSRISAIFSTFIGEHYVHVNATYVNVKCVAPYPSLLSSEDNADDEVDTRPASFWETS

B1: huAbF46-H4-A1: affinity-matured anti-c-Met antibody, L3-1 origin (antibody)
heavy: EVQLVESGGGLVQPGGSLRLSCAASGFTFTDYYMSWVRQAPGKGLEWLGFIRNKANGYTTEYSASVKGRFTISRDNSKNTLYLQMNSLRAEDTAVYYCARDNWFAYWGQGTLVTVSSASTKGPSVFPLAPSSKSTSGGTAALGCLVKDYFPEPVTVSWNSGALTSGVHTFPAVLQSSGLYSLSSVVTVPSSSLGTQTYICNVNHKPSNTKVDKKVEPKSCDCH[not shown - human IgG1 Fc]
light: DIQMTQSPSSLSASVGDRVTITCKSSQSLLASGNQNNYLAWHQQKPGKAPKMLIIWASTRVSGVPSRFSGSGSGTDFTLTISSLQPEDFATYYCQQSYSRPYTFGQGTKVEIKRTVAAPSVFIFPPSDEQLKSGTASVVCLLNNFYPREAKVQWKVDNALQSGNSQESVTEQDSKDSTYSLSSTLTLSKADYEKHKVYACEVTHQGLSSPVTKSFNRGEC
[1]
  affinity for c-Met: highest
[2]
  Akt phosphorylation: lowest
[3]
  c-Met degradation degree: lowest
